# Reference: PubChem BioAssay AID588591 (National Center for Advancing Translational Sciences (NCATS), 2011)
# The whole screen tested about 390,000 compounds, of which about 4,700 (1.2%) were called active. Inconclusive results, whose numbers are uncertain, are shown with a selection of clear calls. The call rests on the fitted dose curve; in most records, active means well fitted inhibition curve with a large enough effect; inconclusive means small, poorly fitted or top-dose-only effect, or another doubt; inactive means no such curve, though single readings can be large or run the other way. Where the call is inconclusive, the potency comes from a doubtful curve fit.
# Target: DNA polymerase eta (Homo sapiens) (UniProt Q9Y253)
# UniProt Q9Y253, sequence (Q9Y253 whole entry, looked up): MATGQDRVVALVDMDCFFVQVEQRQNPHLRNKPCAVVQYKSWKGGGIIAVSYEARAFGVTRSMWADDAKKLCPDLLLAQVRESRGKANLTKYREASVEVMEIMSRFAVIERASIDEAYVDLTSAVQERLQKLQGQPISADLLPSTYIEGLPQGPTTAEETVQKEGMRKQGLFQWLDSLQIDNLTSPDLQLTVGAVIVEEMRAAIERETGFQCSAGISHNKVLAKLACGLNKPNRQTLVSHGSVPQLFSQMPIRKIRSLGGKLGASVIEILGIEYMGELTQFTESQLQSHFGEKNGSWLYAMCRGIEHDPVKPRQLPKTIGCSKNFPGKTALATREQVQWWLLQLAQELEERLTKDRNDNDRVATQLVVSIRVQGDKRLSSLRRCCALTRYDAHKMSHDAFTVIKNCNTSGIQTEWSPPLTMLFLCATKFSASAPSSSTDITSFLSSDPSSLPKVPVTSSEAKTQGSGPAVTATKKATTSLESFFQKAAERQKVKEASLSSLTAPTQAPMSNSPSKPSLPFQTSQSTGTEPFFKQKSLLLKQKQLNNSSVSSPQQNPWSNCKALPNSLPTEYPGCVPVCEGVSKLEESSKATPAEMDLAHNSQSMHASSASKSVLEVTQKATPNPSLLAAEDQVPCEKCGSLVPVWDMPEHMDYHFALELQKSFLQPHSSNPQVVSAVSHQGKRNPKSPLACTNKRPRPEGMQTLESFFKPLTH
# Experiment: qHTS for Inhibitors of Polymerase Eta
# Conditions: recombinant Pol eta, fluorescent DNA replication assay; series mostly up to 114 µM
# Method in brief: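 Fluorescent replication assay: 50 nM final substrate added after a 15 min room-temperature compound preincubation with 10 nM enzyme. Signal taken at 0 min and again at 10 min.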
# Potency means the concentration at half of the fitted maximal effect; tags describe the fitted curve by direction and shape.
row,SMILES,Potency
1,O=C(COc1ccccc1F)Nc1nc(-c2ccccn2)cs1,"inconclusive: 10 µM [inhibitor, full curve, poor fit]"
2,COc1ccccc1N1CC(C(=O)Nc2ccc(S(=O)(=O)N3CCOCC3)cc2)CC1=O (centres undefined),"inconclusive: 15.8 µM [inhibitor, full curve, poor fit]"
3,O=C(/C=C/c1ccco1)N(Cc1ccc(Cl)cc1)C1CCS(=O)(=O)C1 (centres undefined),"inconclusive: 89.1 µM [inhibitor, partial curve, poor fit]"
4,CC1=C(C(=O)OCc2ccccc2)C(c2ccccc2OS(=O)(=O)c2ccc(C)cc2)NC(=O)N1CCCC(=O)O (centres undefined),inactive
5,CCNc1ccc(Br)cc(C(=O)/C=C/c2ccc3c(c2)OCO3)c1=O,active: 11.2 µM
6,CCOC(=O)c1ccc(S(=O)(=O)N2CCN(C(=O)c3ccccn3)CC2)cc1,"inconclusive: 100 µM [inhibitor, partial curve, poor fit]"
7,CCOc1ccc(C(=O)CCC(=O)Nc2ncccc2O)cc1,"inconclusive: 25.1 µM [inhibitor, partial curve]"
8,CNC(=O)Cn1c(=O)c2cccn2c2ccc(F)cc21,inactive
9,COc1cc(CCN2C(=O)c3cccc4cccc(c34)C2=O)c(S(=O)(=O)NCCCO)cc1OC,"inconclusive: 28.2 µM [inhibitor, partial curve, poor fit]"
10,COc1ccc(NC(=O)c2sc3nc(N4CCOCC4)c4c(c3c2N)CC(C(C)C)OC4)c(OC)c1 (centres undefined),inactive
11,FC(F)(F)c1cc(CCN2CCNC[C@@H]2Cc2ccccc2)cc(C(F)(F)F)c1,"inconclusive: 89.1 µM [inhibitor, partial curve, poor fit]"
12,CCc1nnc(NC(=O)c2cc(-c3ccco3)nc3ccccc23)s1,active: 15.8 µM
13,Cc1c(Cl)cccc1-n1ncc(C(=O)NCc2cccs2)c1C1CCN(C(=O)OC(C)(C)C)CC1,inactive
14,O=C(C1CC(=O)N(c2ccc3c(c2)OCCO3)C1)N1CCN(S(=O)(=O)c2ccccc2F)CC1 (centres undefined),"inconclusive: 0.708 µM [inhibitor, full curve, poor fit]"
15,Cc1ccc(C(=O)/C=C/c2ccc(-c3ccc(C)cc3)o2)cc1,"inconclusive: 31.6 µM [inhibitor, partial curve, poor fit]"
16,CCOC(=O)c1sc(NC(=S)NC(=O)c2cccc(OC)c2)nc1C,"inconclusive: 79.4 µM [inhibitor, partial curve, poor fit]"
17,O=C(CCc1ccccc1)NCCc1csc(-c2cccc(F)c2)n1,inactive
18,COc1ccc(-c2ccc3c(c2)S(=O)(=O)c2cccc(C(=O)NC[C@@H]4CCCO4)c2C3=O)cc1OC,active: 28.2 µM
19,Cc1ccc(NC(=O)CS(=O)CC(=O)Nc2ccc3c(c2)OCO3)cc1Cl (centres undefined),"inconclusive: 20 µM [inhibitor, single point]"
20,COc1ccccc1C1C2=C(N=c3s/c(=C/c4cccc(OCC(=O)O)c4)c(=O)n31)c1ccccc1CC2 (centres undefined),active: 39.8 µM
21,CC(NC(=O)C(=O)NN=C1CCCC1)c1ccccc1 (centres undefined),inactive
22,O=C(O)C1Cc2ccccc2CN1C(=O)CSc1nnc2ccccn12 (centres undefined),"inconclusive: 25.1 µM [inhibitor, partial curve, poor fit]"

row,SMILES,Potency
1,O=C(Cc1cc(=O)[nH][nH]1)N/N=C/C=C/c1ccccc1,active: 14.1 µM
2,Cc1c(C(=O)O)cccc1-c1ccc(/C=C2/NC(=O)N(c3ccccc3)C2=O)o1,active: 22.4 µM
3,Cc1cccc(-c2noc(-c3ccc(NCC4CCCO4)c([N+](=O)[O-])c3)n2)c1 (centres undefined),inactive
4,COc1ccccc1NS(=O)(=O)c1cc(C(=O)Nc2ccc(S(=O)(=O)Nc3onc(C)c3C)cc2)ccc1C,"inconclusive: 39.8 µM [inhibitor, single point]"
5,N#C/C(=C\c1ccc(Sc2nc3ccccc3[nH]2)o1)c1ccccc1,"inconclusive: 28.2 µM [inhibitor, partial curve]"
6,COC(=O)c1cccc(-n2c(C)cc(C=O)c2C)c1C,"inconclusive: 39.8 µM [inhibitor, partial curve, poor fit]"
7,COc1ccc2oc(C(=O)Nc3nc(-c4ccccn4)cs3)c(C)c2c1,"inconclusive: 4.47 µM [inhibitor, full curve, poor fit]"
8,O=C(CSc1ncn(-c2ccccc2)n1)Nc1nc2c(s1)CCCC2,active: 50.1 µM
9,COc1cc(CNCc2cccs2)cc(Br)c1OC,"inconclusive: 79.4 µM [inhibitor, partial curve, poor fit]"
10,COc1ccc(NC(=O)c2ccc3c(c2)c(C)c(C)n3Cc2ccc(F)cc2)c(OC)c1,inactive
11,COc1ccc(C2=Nn3c(nc4sc(C(=O)Nc5cccc(C)c5)c(C)c4c3=O)SC2)cc1,inactive
12,O=C(CSc1nc(NS(=O)(=O)c2ccccc2)cc(=O)[nH]1)Nc1ccc(Cl)cc1,inactive
13,CCCC(=O)Nc1ccccc1NC(=O)CN(C)S(=O)(=O)c1ccccc1,inactive
14,COC(=O)c1c(-c2c(Cl)cccc2Cl)noc1NC(=O)NN1CCCCC1,"inconclusive: 79.4 µM [inhibitor, partial curve, poor fit]"
15,O=C(CCc1nc(-c2ccccc2)no1)NCc1ccco1,"inconclusive: 25.1 µM [inhibitor, partial curve]"
16,N#Cc1c(C(F)(F)F)cc(-c2ccccc2)nc1SCC(=O)Nc1sc2c(c1C#N)CCC2,"inconclusive: 25.1 µM [inhibitor, partial curve, poor fit]"
17,Cc1occc1C(=O)/C(C#N)=C/c1ccc(O)c(Br)c1,"inconclusive: 56.2 µM [inhibitor, partial curve, poor fit]"
18,CC(Sc1n[nH]c(N)n1)c1nc2scc(-c3cccs3)c2c(=O)[nH]1 (centres undefined),"inconclusive: 20 µM [inhibitor, partial curve, poor fit]"
19,CC(C)(C)C(=O)NC(=S)NNC(=O)C(c1ccccc1)c1ccccc1,"inconclusive: 89.1 µM [inhibitor, partial curve, poor fit]"
20,O=C(CSCC(=O)Nc1cccc([N+](=O)[O-])c1)Nc1ccccc1,"inconclusive: 56.2 µM [inhibitor, partial curve, poor fit]"
21,Cc1ccc(OCC(=O)Nc2cc(S(=O)(=O)N3CCCCC3)ccc2N2CCN(C)CC2)c(C)c1,"inconclusive: 89.1 µM [inhibitor, partial curve, poor fit]"
22,O=C(OCc1nnc(-c2ccc([N+](=O)[O-])cc2)o1)C1CC(=O)N(CCc2ccccc2)C1 (centres undefined),"inconclusive: 20 µM [inhibitor, partial curve]"

row,SMILES,Potency
1,Cc1cccn2c(=O)c3cc(C#N)c(=NC(=O)c4ccccc4)n(Cc4ccco4)c3nc12,active: 25.1 µM
2,CCN1CCN(Cc2c(O)ccc3c(=O)c(Oc4ccccc4Cl)c(C(F)(F)F)oc23)CC1,inactive
3,S=C(Nc1ccc(N2CCOCC2)cc1)Nc1ccc2nc(-c3ccco3)c(-c3ccco3)nc2c1,"inconclusive: 2 µM [inhibitor, full curve, poor fit]"
4,COc1ccc2nc3sc(C(=O)Nc4cc(Cl)c(OC)cc4OC)cc3cc2c1,"inconclusive: 35.5 µM [inhibitor, partial curve, poor fit]"
5,CC(=O)Oc1ccc(N(C(C)=O)S(=O)(=O)c2cc([N+](=O)[O-])ccc2C)cc1,"inconclusive: 20 µM [inhibitor, single point]"
6,O=C(O)CCC(=O)Nc1ccc(Cc2ccc(NC(=O)CCC(=O)O)c(O)c2)cc1O,active: 15.8 µM
7,COc1ccc(N2CC3=C(C2=O)C(c2ccc(Br)cc2)NC(=O)N3C)cc1 (centres undefined),inactive
8,N#Cc1c(NCCCO)nc(NCc2ccccc2)c2c1CCN(Cc1ccccc1)C2,"inconclusive: 31.6 µM [inhibitor, partial curve, poor fit]"
9,O=C(NCc1ccccc1Cl)c1ccc(S(=O)(=O)Nc2cccc(C(F)(F)F)c2)cc1,"inconclusive: 79.4 µM [inhibitor, partial curve, poor fit]"
10,Nc1nonc1-c1nc2ccccc2n1CC(=O)N/N=C/c1ccc(-c2ccccc2C(=O)O)o1,active: 31.6 µM
11,N=c1c(C(=O)NCc2ccco2)cc2c(=O)n3ccccc3nc2n1Cc1ccccc1,"inconclusive: 17.8 µM [inhibitor, partial curve]"
12,CNc1ccc(/C=C(\CCC(=O)O)c2nc3ccccc3s2)cc1[N+](=O)[O-],active: 12.6 µM
13,CCOC(=O)c1c(C)sc(-c2c(-c3ccc4c(c3)OCCO4)[nH]c3c2c(=O)[nH]c(=O)n3C)c1O,"inconclusive: 56.2 µM [inhibitor, partial curve]"
14,CCCOc1cc2c(C#N)c(N3CCCC3)nc(N)c2c(N)n1,active: 44.7 µM
15,O=C(CSc1nc2sccc2c(=O)[nH]1)N1CCN(c2ccccc2)CC1,active: 50.1 µM
16,Cc1cc(C)n2c(SCC(=O)Nc3ccccc3C#N)nnc2n1,"inconclusive: 44.7 µM [inhibitor, partial curve, poor fit]"
17,COc1ccc2ccc(OC)c(/C=N/n3cnnc3)c2c1,"inconclusive: 39.8 µM [inhibitor, partial curve, poor fit]"
18,Cc1cc(OC(=O)c2c(C)cc(OC(=O)c3c(C)cc(O)cc3O)cc2O)cc(O)c1C(=O)O,"inconclusive: 44.7 µM [inhibitor, partial curve]"
19,CC1=CC(C)(C)N2C(=O)C(=Nc3ccc(O)cc3)c3cccc1c32,active: 20 µM
20,CC(/C=C1\SC(=S)N(c2ccc(C(=O)O)cc2)C1=O)=C\c1ccccc1,active: 22.4 µM
